Test results taken from publication PMC4336329 (PLoS ONE, 2015).
In all, about 310,000 compounds went through this assay and about 2,200 (0.71%) showed an effect of 50% or more. The effect is printed as a negative number. This is one part of the list.

target: human ether-à-go-go-related gene (hERG) potassium channel (human, UniProt Q12809); experiment: primary screen, population patch clamp on CHO cells stably expressing hERG
Sequence (Q12809 whole entry, looked up): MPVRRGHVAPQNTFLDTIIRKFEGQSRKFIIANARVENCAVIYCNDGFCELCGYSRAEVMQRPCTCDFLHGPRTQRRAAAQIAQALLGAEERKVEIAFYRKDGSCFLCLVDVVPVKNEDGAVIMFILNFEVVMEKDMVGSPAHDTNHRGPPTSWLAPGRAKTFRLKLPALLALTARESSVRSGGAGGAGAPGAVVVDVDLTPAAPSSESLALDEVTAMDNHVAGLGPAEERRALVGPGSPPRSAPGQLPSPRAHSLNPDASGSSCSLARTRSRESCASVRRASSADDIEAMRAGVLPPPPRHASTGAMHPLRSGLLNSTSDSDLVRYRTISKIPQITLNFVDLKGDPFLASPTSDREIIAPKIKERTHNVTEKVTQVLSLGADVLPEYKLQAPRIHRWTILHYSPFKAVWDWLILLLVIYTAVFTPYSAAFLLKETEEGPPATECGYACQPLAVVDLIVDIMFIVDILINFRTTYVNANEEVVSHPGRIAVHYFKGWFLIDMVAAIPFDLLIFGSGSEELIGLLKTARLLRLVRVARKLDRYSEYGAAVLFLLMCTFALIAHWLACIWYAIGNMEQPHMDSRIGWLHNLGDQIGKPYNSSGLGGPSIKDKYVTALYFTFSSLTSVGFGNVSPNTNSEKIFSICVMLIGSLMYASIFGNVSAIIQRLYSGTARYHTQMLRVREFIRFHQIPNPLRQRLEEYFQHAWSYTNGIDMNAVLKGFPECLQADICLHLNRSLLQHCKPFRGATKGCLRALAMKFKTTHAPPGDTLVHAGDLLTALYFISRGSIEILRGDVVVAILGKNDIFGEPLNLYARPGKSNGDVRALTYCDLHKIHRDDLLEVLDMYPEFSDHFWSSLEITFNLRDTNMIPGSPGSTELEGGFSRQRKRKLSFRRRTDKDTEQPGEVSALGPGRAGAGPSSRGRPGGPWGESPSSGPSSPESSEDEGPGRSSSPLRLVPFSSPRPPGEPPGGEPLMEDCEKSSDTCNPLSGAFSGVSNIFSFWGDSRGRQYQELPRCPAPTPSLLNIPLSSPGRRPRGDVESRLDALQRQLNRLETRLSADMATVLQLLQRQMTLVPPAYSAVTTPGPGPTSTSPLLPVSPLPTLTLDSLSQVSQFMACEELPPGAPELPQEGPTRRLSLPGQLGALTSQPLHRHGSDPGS

Structure (SMILES)	hERG current change (%, negative = inhibition) at 1uM
COc1ccc(-c2csc(NC(C)c3nc4cc(C(=O)NCCCO)ccc4n3Cc3ccc(C)cc3)n2)cc1 (centres unmarked)	8.77%
C(=C(c1ccccc1)c1ccccc1)c1ccccn1	12.8%
CC(C)NC(=O)c1ccccc1NC(=O)Cc1ccc(Cl)cc1	-0.471%
COc1cc2c(cc1NC(=S)Nc1ccccc1C)oc1ccccc12	4.36%
COc1cc([C@@H]2c3cc4c(cc3[C@H](O)[C@H]3COC(=O)[C@H]23)OCO4)cc(OC)c1OC	-14.6%
O=C(CSc1nnc(NCc2ccccc2)s1)NC1CCS(=O)(=O)C1 (centres unmarked)	13%
CCOC(=O)C1CCCN(C(=O)c2cc3cc4ccc(OC)cc4nc3o2)C1 (centres unmarked)	6.1%
Cc1cc(C(=O)NC2CCCc3c2cnn3-c2cccc(C)c2C)c(C)o1 (centres unmarked)	20.4%
CC(NC(=O)c1ccc(C23CC4CC(CC(C4)C2)C3)cc1)C(=O)O (centres unmarked)	8.38%
O=C(NCC1CCCO1)C(c1cccs1)N(Cc1cccs1)C(=O)Cn1nnc(-c2cccs2)n1 (centres unmarked)	9.7%
CSc1sc(C(=O)OC(C)C)c2c1C(=O)CC(C)(C)C2	7.7%
Cn1c(CN2CCOCC2)nnc1SCc1cccc(F)c1	6.21%
COc1ccc(NC(=O)C/C(C)=N/NC(=O)c2cnccn2)cc1Cl	26.2%
Cc1ccc(C)c(OC(=O)c2cccc(S(=O)(=O)N3CCN(C)CC3)c2)c1	5.78%
CC1CC(C)CN(S(=O)(=O)c2ccc3c(c2)NC(=O)C(C)C(=O)N3)C1 (centres unmarked)	3.22%
COc1ccc(CC(=O)N(C)CC(=O)Nc2ccccc2Cl)cc1S(=O)(=O)N1CCOCC1	9.77%
CN(C)c1ccc(S(=O)(=O)NCC(=O)NCCC2=CCCCC2)cc1[N+](=O)[O-]	2.6%
CCn1nnnc1NC(=O)c1cc(Cl)c(OC)c(Cl)c1	-2.59%
Cc1ccc(CN2C(=O)CCC2C(=O)NCc2ccc3c(c2)OCO3)cc1 (centres unmarked)	1.19%
Cc1cc(C(=O)Nc2cccc3cccnc23)ccc1[N+](=O)[O-]	7.74%
CN(C)S(=O)(=O)c1cccc(NC(=O)CSc2cccc3cccnc23)c1	14.1%
Cc1[nH]n(C)c(=O)c1[N+](=O)[O-]	8.01%
O=C(O)c1cccnc1SCc1cn2cc(Cl)ccc2n1	11.7%
CCN(CC)CCNC(=O)C1c2cc(OC)c(OC)cc2C(=O)N(C)C1c1cccs1 (centres unmarked)	7.41%
O=C(COC(=O)c1ccc(S(=O)(=O)N2CCCC2)cc1)NCc1ccccc1	9.69%
O=C(CSCc1cnn(-c2ccccc2)c1-n1cccc1)NCc1ccccn1	-2.01%
CCOc1ccc(-c2nnc(-c3cccs3)o2)cc1OCC	10.2%

Structure (SMILES)	hERG current change (%, negative = inhibition) at 1uM
Fc1cccc(Cl)c1Cn1nnc2c(NCc3ccccn3)ncnc21	3.08%
O=C(O)c1ccc2c(=O)n(-c3ccccc3)c(=S)[nH]c2c1	8.52%
CCN(CC)C(=O)CSc1nc2cc3c(cc2c(=O)n1Cc1ccc2c(c1)OCO2)OCO3	5.9%
CC(=O)NCc1ccc(C(=O)O)cc1	11.7%
Cc1cc(C)c(N2C(=NC(=O)CCCC(=O)O)SC3CS(=O)(=O)CC32)c(C)c1 (centres unmarked)	16.5%
CCc1ccc(C(=O)COC(=O)CNC(=O)CNS(=O)(=O)c2ccccc2)cc1	-2.67%
COc1ccc(OCc2cc(C(=O)N3CCCC(CO)C3)no2)c2ccccc12 (centres unmarked)	-1.11%
CC(Sc1nn(-c2ccc(F)cc2)c(=S)s1)C(=O)c1c(N)n(C)c(=O)n(C)c1=O (centres unmarked)	15.5%
Cc1[nH]n(-c2ccccc2)c(=O)c1C=Nc1ccc(S(=O)(=O)N(C)C)cc1	9.29%
COc1ccc(C)cc1NC(=O)CN(C)S(=O)(=O)c1cccs1	-4.53%
COc1ccc(Nc2nc(-c3cccc([N+](=O)[O-])c3)nc3ccccc23)c(OC)c1	17.2%
O=c1oc2ccccc2n1CCn1c2ccccc2c2nc3ccccc3nc21	12.5%
CCCOC(=O)C1=C(C)NC2=C(C(=O)C(C(=O)OC)C(C)C2)C1c1ccc(N(C)C)cc1 (centres unmarked)	3.83%
Cn1c(CO)nc2cc(N)ccc21	6.75%
N#Cc1ccc2ccn(CC(=O)N3CCCc4ccccc43)c2c1	5.62%
COc1ccc(NC(=O)CN(C)C(=O)c2cn(-c3ccccc3)nc2-c2cccs2)cc1	4.14%
COc1ccc(Cc2noc(-c3ccc([N+](=O)[O-])cc3)n2)cc1OC	11.6%
CC(C(=O)OCC(=O)c1ccc([N+](=O)[O-])cc1)N1C(=O)C2C3CCC(C3)C2C1=O (centres unmarked)	9.29%
Cc1ccc2cc(CN(Cc3cccs3)C(=O)c3ccco3)c3nnnn3c2c1C	6.65%
COc1cc2c(cc1OC)C(C)N(CCc1ccc(Cl)cc1)CC2.O=C(O)/C=C\C(=O)O (centres unmarked)	-39.9%
COCCCC1CCN(C(=O)C2CCC(=O)N(CCc3ccccc3)C2)CC1 (centres unmarked)	-8.93%
Cc1ccc2nc(-c3ccc(-c4cccc(Cl)c4)cc3)c(NCc3ccccc3)n2c1.O=C(O)C(F)(F)F	5.81%
Cc1ccc(-n2ncc(C#N)c2/N=C/N2CCN(C)CC2)cc1	7.11%
CCC(=O)OC1(C)C(=O)C=C2C=C(CCCC(=O)OC)OC=C2C1=O (centres unmarked)	5.9%
COc1cc(CN2CCCC(C(=O)c3sccc3C)C2)cc(Cl)c1O (centres unmarked)	5.65%
COc1ccc(S(=O)(=O)N2CCCC2CNC(=O)C(=O)NCc2ccco2)cc1 (centres unmarked)	10.7%
